± gives the standard deviation of the averaged measurements. Whole data set: some 33,000 sequences, median “E-score (dimensionless, -0.5 to 0.5)” near -0.049, cut for the highest 2% near 0.37. Some of the results follow.

The test concerns T1, PmTbr T-box DNA-binding domain (GST fusion).
T1 sequence: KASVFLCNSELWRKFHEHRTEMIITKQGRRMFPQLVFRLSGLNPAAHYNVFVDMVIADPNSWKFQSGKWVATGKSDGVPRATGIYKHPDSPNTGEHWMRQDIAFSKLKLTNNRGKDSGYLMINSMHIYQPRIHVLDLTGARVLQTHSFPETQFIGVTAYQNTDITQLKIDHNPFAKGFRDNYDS
The experiment in a line: PBM E-score of 8-mer (E-score (dimensionless, -0.5 to 0.5)); Tbr is Tbrain of the sea star Patiria miniata (Pm) or the sea urchin Strongylocentrotus purpuratus (Sp); higher = stronger binding preference; most listed sequences are background and not binding sites. As to conditions: the construct has about 5 more residues each side. Summed up:
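Primer extension turned Universal Agilent oligonucleotide arrays double-stranded. They were incubated with 200 nM protein in PBS (pH 7.5); the protein was a GST-fused Tbr T-box DNA-binding domain expressed in BL21 E. coli at 20 °C and purified on glutathione. Every ungapped 8-mer was scored from the scanned, quantified probe intensities, and the Universal PBM Analysis Suite gave each an enrichment E-score averaged over duplicate arrays.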
Take ACCTTGCG: the “PBM E-score of 8-mer” value came to 0.327 ± 0.013.
To CTACCGGC belongs -0.0673 ± 0.0053; to GTAAGACA, -0.05851 ± 0.00017.
To TATTTAAA belongs -0.166 ± 0.056; to AGTTCCAA, -0.116 ± 0.037; to AATTGCAC, 0.186 ± 0.0071.
Consider CGTACTGC, for which the “PBM E-score of 8-mer” value was -0.107 ± 0.057.
Turning to GGGACCGA, the “PBM E-score of 8-mer” value was -0.172 ± 0.032.
As for GGTATTAC, the “PBM E-score of 8-mer” value was -0.137 ± 0.093.
As for AAACAAGG, the “PBM E-score of 8-mer” value is -0.00432 ± 0.0069.
To AATACCCA belongs -0.157 ± 0.13; to ATCCATTC, -0.2794 ± 0.0019.
To AAAGCGAA belongs -0.0477 ± 0.069; to CATTGGGG, -0.0156 ± 0.035.
For CAGGGTTC, the “PBM E-score of 8-mer” value came out at 0.0231 ± 0.012.
To AGTCTAGG belongs -0.158 ± 0.038.
To AGGGGCAA belongs -0.0624 ± 0.058; to AAGTGATG, 0.28 ± 0.0076.
To AGTGTTGA belongs 0.395 ± 0.022; to GCACCGAA, -0.0219 ± 0.025; to AATTCGAG, -0.0627 ± 0.075.
As to ATCCTTGG, the “PBM E-score of 8-mer” value is -0.274 ± 0.093.
As to AGAAAAAA, the “PBM E-score of 8-mer” value is 0.0449 ± 0.1.
For the sequence CCATTTAA, the “PBM E-score of 8-mer” value was -0.0227 ± 0.027.
On to CACTCAGC, for which the “PBM E-score of 8-mer” value turned out to be 0.109 ± 0.053.
Then AACTCGTC, with 0.133 ± 0.0068; and ACTTCTCG, with 0.226 ± 0.052.
To AAGACTGT belongs -0.122 ± 0.058.
Then GGATTCGA, with -0.122 ± 0.025.
On to AAGTTGAG, for which the “PBM E-score of 8-mer” value was 0.0749 ± 0.065.
Then CAGGTCGA, with 0.13 ± 0.0056.
On to ACGAAACC, for which the “PBM E-score of 8-mer” value was -0.107 ± 0.018.
On to CGCGATGC, for which the “PBM E-score of 8-mer” value came out at 0.0992 ± 0.017.
Then CATATCGG, with -0.111 ± 0.0044; and AGTTCCCA, with -0.094 ± 0.026; and AGGGTCCG, with -0.126 ± 0.01.
As for ACAGGTGA, the “PBM E-score of 8-mer” value was 0.406 ± 0.0049.
To CTTCTCCA belongs -0.194 ± 0.0031; to CAAATATA, -0.177 ± 0.054; to CAGGACGC, 0.0118 ± 0.05.
To TGTGTCAA belongs 0.372 ± 0.014; to CAGGGGGC, -0.132 ± 0.031; to AGCGGTAG, -0.0161 ± 0.021.
Turning to GCCCGCGA, the “PBM E-score of 8-mer” value amounted to 0.113 ± 0.04.
To AAAATCGG belongs -0.165 ± 0.057.
To ACCTGTAT belongs 0.168 ± 0.011.
For the sequence GTCCTGGA, the “PBM E-score of 8-mer” value was -0.342 ± 0.065.
To CCGCGTTC belongs -0.0663 ± 0.0095; to GACGATGA, -0.0998 ± 0.004; to GACGTTTA, -0.111 ± 0.014.
To CTGTCTAC belongs 0.0533 ± 0.045.
With GAAAAATC, the “PBM E-score of 8-mer” value is 0.17 ± 0.077.
Then ACTGGCCG, with -0.033 ± 0.03; and AGGATGTA, with -0.1063 ± 0.00074; and CGTAGAAC, with -0.133 ± 0.028.
For ATAGAAGC, the “PBM E-score of 8-mer” value is -0.294 ± 0.13.
Then ACAATCTC, with 0.202 ± 0.036; and AACTCACC, with 0.0059 ± 0.011; and CAGTACCG, with -0.1169 ± 0.00046.
To TAAGCAAA belongs -0.122 ± 0.044; to GTTTGAGA, -0.0765 ± 0.072.
Then GCAACGGA, with -0.0777 ± 0.049; and GTATGTCA, with 0.155 ± 0.034.
For the sequence GAGCAGCC, the “PBM E-score of 8-mer” value is -0.148 ± 0.048.
To AGCCGTAA belongs -0.13 ± 0.0034; to CCTGCTAA, 0.338 ± 0.033; to GCGCACCA, -0.0144 ± 0.01.
Then TCTAAACA, with 0.0667 ± 0.05; and ACAGCCAG, with -0.0384 ± 0.055.
Regarding ATTCATCA, the “PBM E-score of 8-mer” value is 0.0685 ± 0.019.
Then ACTCTTCC, with -0.043 ± 0.011; and AACACTGG, with -0.059 ± 0.088.
Consider CGATGGAA, for which the “PBM E-score of 8-mer” value is -0.0612 ± 0.022.
Then CGGAAGGC, with -0.00664 ± 0.04.
Consider ACGCGGCC, for which the “PBM E-score of 8-mer” value is -0.0745 ± 0.03.
To GAAGACCA belongs -0.0463 ± 0.011; to ATAAGAGC, -0.183 ± 0.025; to GAGTAGAA, -0.208 ± 0.013.
For AGGTAGTA, the “PBM E-score of 8-mer” value was -0.102 ± 0.005.
Then ACGCAGCG, with -0.0847 ± 0.052.
Take CAGCCCGA: the “PBM E-score of 8-mer” value is -0.215 ± 0.055.
Then ATGCGACG, with 0.0226 ± 0.025.
To AGTCATTC belongs 0.0179 ± 0.06; to AGGAACAC, 0.141 ± 0.0084; to CTTACGAA, -0.0964 ± 0.046.
Then GAGGGCAA, with 0.0275 ± 0.024.
Consider TACTGGCA, for which the “PBM E-score of 8-mer” value is 0.111 ± 0.034.
To AACCTACA belongs 0.134 ± 0.012; to CACCTAGA, 0.324 ± 0.028; to TACTCGGA, -0.187 ± 0.067.
AAGAGGAT: the “PBM E-score of 8-mer” value was -0.0795 ± 0.076.
To ACAAGATC belongs 0.00917 ± 0.059; to CTATGCAG, 0.0415 ± 0.0051; to AAAATTGT, -0.0113 ± 0.062.
With GACGTGCC, the “PBM E-score of 8-mer” value was 0.213 ± 0.018.
Then TCCCTGCA, with -0.162 ± 0.011; and ATTAACGG, with -0.167 ± 0.018; and GTTGAGAA, with 0.217 ± 0.0097.
Then AGGGGGTC, with -0.25 ± 0.031; and ATGGCCTA, with -0.203 ± 0.011.
To GACCAATC belongs 0.0215 ± 0.014; to GTACTGCA, -0.118 ± 0.03; to ACTGCTCT, -0.152 ± 0.0054.
Turning to GTGTCAGA, the “PBM E-score of 8-mer” value turned out to be 0.3931 ± 0.00061.
For CCCGGGAG, the “PBM E-score of 8-mer” value is -0.212 ± 0.0027.
In the case of AATAGTGC, the “PBM E-score of 8-mer” value was 0.128 ± 0.038.
Then CTACATCC, with -0.0987 ± 0.0034; and CATAAGTC, with -0.19 ± 0.031; and CAGTACAC, with -0.0273 ± 0.034.

The values above are taken from the supplement of paper PMC4166925.
